{"source": "paper PMC6919601", "about": "“Identification of Plasmodium dipeptidyl aminopeptidase allosteric inhibitors by high throughput screening” (PLoS ONE, 2019)", "note": "In all, about 110,000 compounds went through this assay and about 230 (0.21%) showed an effect of 50% or more. This is one part of the list.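 Further: 30 min substrate incubation versus DMSO and 10 µM JCP410 controls.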"}
{"target": "DPAP1 (Plasmodium falciparum, UniProt Q8IIJ9)", "sequence (Q8IIJ9 whole entry, looked up)": "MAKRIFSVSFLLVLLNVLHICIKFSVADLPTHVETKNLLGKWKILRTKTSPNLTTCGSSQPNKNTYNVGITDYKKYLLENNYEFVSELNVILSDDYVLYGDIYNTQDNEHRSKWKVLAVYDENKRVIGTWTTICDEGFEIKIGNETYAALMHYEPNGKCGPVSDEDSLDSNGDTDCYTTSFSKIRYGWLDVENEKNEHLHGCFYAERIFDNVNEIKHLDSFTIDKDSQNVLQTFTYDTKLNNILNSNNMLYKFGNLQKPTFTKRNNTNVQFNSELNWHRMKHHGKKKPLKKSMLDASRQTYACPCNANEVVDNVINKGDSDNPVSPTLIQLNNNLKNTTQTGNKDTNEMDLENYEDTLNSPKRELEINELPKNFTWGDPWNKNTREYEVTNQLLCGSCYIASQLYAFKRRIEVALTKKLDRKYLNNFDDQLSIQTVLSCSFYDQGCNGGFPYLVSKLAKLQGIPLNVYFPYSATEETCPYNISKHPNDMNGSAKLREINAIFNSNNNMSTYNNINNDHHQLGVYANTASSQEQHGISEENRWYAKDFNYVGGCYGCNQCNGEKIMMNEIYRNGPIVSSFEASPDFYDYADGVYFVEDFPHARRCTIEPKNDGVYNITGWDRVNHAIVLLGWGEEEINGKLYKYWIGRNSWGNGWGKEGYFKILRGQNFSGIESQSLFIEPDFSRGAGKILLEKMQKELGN", "experiment": "primary screen, percent inhibition; read by cleavage of a fluorogenic dipeptide substrate; higher = more effect of the substance", "set-up": "species or system P. falciparum D10 trophozoite lysates; single well", "units": {"% Inhibition @ 10 uM": "%"}}
{"smiles": "CN(CCCNC(=O)Cn1cccc1C(=O)c1ccccc1)C1CCCCC1", "% Inhibition @ 10 uM": -4.26}
{"smiles": "O=C(CCC(=O)Nc1nc(-c2cc3ccccc3oc2=O)cs1)NCc1ccccc1Cl", "% Inhibition @ 10 uM": -2.03}
{"smiles": "COc1ccc2c(c1)CC/C(=C\\c1ccc3nccnc3c1)C2=O", "% Inhibition @ 10 uM": 8.9}
{"smiles": "C#CCOc1ccc(/C=C2\\C(=O)ON=C2C)cc1OC", "% Inhibition @ 10 uM": -0.85}
{"smiles": "COCCCNC(=O)c1c(NC(=O)c2cc(=O)c3ccc(C)cc3o2)sc2c1CCCC2", "% Inhibition @ 10 uM": 0.248}
{"smiles": "O=C(O)C1CCN(C(=O)c2ccccc2C(=O)N2CCC(C(=O)O)CC2)CC1", "% Inhibition @ 10 uM": -3.47}
{"smiles": "Cc1ccc(C(C)C)cc1Oc1cc(Cl)nc(N)n1", "% Inhibition @ 10 uM": -2.41}
{"smiles": "CCN(C(=O)c1c(Cl)nc(C)c(Cl)c1C)c1ccccc1", "% Inhibition @ 10 uM": 1.64}
{"smiles": "COc1cc(OC)cc(C(=O)Nc2nc(-c3nnn(-c4cc(F)ccc4F)c3C)ns2)c1", "% Inhibition @ 10 uM": -1.19}
{"smiles": "CC(NC(=O)c1ccccc1N(C)S(C)(=O)=O)c1ccccc1", "note": "(centres unmarked)", "% Inhibition @ 10 uM": -3.77}
{"smiles": "Cc1ccc(OCCSCc2nc3ccccc3[nH]2)cc1", "% Inhibition @ 10 uM": -1.74}
{"smiles": "Cc1ccc(C(=O)N/C(=C/C=C/c2ccccc2)C(=O)N2CC3CC(C2)c2cccc(=O)n2C3)cc1C", "note": "(centres unmarked)", "% Inhibition @ 10 uM": 19}
{"smiles": "CCOc1ccc(CCNC(=O)c2oc3cc4sc(N(C)C)nc4cc3c2C)cc1", "% Inhibition @ 10 uM": -3.81}
{"smiles": "Cc1ccc(S(=O)(=O)NCC(C)NS(=O)(=O)c2ccc(C)cc2)cc1", "note": "(centres unmarked)", "% Inhibition @ 10 uM": -3.72}
{"smiles": "CC1CCN(S(=O)(=O)c2cccc3cccnc23)CC1", "% Inhibition @ 10 uM": 9.33}
{"smiles": "CCc1ccccc1-n1c(SCC(=O)N2CCCC2)nc2nncc-2c1O", "% Inhibition @ 10 uM": -2.21}
{"smiles": "Cc1ccc(/C=C2\\N=C(c3ccc(Br)o3)OC2=O)cc1", "% Inhibition @ 10 uM": 0.78}
{"smiles": "Cc1noc2ncnc(N3CCCC(C(=O)Nc4nccs4)C3)c12", "note": "(centres unmarked)", "% Inhibition @ 10 uM": 3.53}
{"smiles": "CC(=O)c1ccc(C2CCC(C(C)=O)CC2)cc1", "note": "(centres unmarked)", "% Inhibition @ 10 uM": -3.26}
{"smiles": "CCOc1ccc(C2C(C#N)=C(N)SC(N)=C2C#N)cc1OC", "% Inhibition @ 10 uM": 57.7}
{"smiles": "CC(=O)c1cc(-c2ccccc2)n(CC(=O)NCCc2ccccc2)c1C", "% Inhibition @ 10 uM": 1.47}
{"smiles": "CC(=O)c1ccc(N2CCN(C(=O)c3cccc(F)c3F)CC2)c(F)c1", "% Inhibition @ 10 uM": -6.08}
{"smiles": "NS(=O)(=O)c1ccc(NC(=O)/C=C/c2ccccc2)cc1", "% Inhibition @ 10 uM": -1.86}
{"smiles": "CN(C)CCN(C)Cc1ccc(Cl)cc1Cl", "% Inhibition @ 10 uM": -0.856}
{"smiles": "COc1ccccc1N1CCN(C(=O)CN(c2cccc(C)c2)S(=O)(=O)c2ccc(C)cc2)CC1", "% Inhibition @ 10 uM": -9.13}
{"smiles": "CC(=O)Nc1ccc(S(=O)(=O)Nc2ccc(F)cc2)cc1", "% Inhibition @ 10 uM": -1.77}
{"smiles": "COc1ccc(C2CC(O)=C/C(=N/c3ccccc3C)C2)cc1OC", "note": "(centres unmarked)", "% Inhibition @ 10 uM": -4.48}
{"smiles": "CC1CCN(C(=O)C2CC(c3ccc(F)cc3)=NO2)CC1", "note": "(centres unmarked)", "% Inhibition @ 10 uM": 1.24}
{"smiles": "FC(F)(F)c1cc(-c2ccco2)nc(NCC2CCCO2)n1", "note": "(centres unmarked)", "% Inhibition @ 10 uM": 1.83}
{"smiles": "Clc1ccc(OCc2nnc3c4cnn(Cc5ccccc5)c4ncn23)cc1", "% Inhibition @ 10 uM": 1.31}
{"smiles": "CC1CCCN(C(=O)Cn2nnc(-c3ccccc3F)n2)C1", "note": "(centres unmarked)", "% Inhibition @ 10 uM": 2.17}
{"smiles": "CCCCOc1ccc(/C=C2\\SC(=O)NC2=O)cc1", "% Inhibition @ 10 uM": 3.86}
{"smiles": "Nc1ccccc1C(=O)Nc1ccc(Cl)cc1", "% Inhibition @ 10 uM": -0.95}
{"smiles": "CCCCS(=O)(=O)c1oc(-c2cccs2)nc1S(=O)(=O)c1ccc(C)cc1", "% Inhibition @ 10 uM": 3.74}
{"smiles": "Cc1cc(C)n(CCc2nc3c4ccccc4nc(SCC(=O)NCc4ccccc4)n3n2)n1", "% Inhibition @ 10 uM": 1.74}
{"smiles": "COC(=O)c1cc2nc(-c3ccc(F)cc3)cc(C)n2n1", "% Inhibition @ 10 uM": -1.93}
{"smiles": "O=C(Nc1ccccc1)NS(=O)(=O)c1cnccc1Sc1ccccc1Cl", "% Inhibition @ 10 uM": -0.46}
{"smiles": "COc1ccc(C2C(=O)N(C3CCCCC3)CC(=O)N2Cc2cccs2)cc1OC", "note": "(centres unmarked)", "% Inhibition @ 10 uM": 1.27}
{"smiles": "O=C1C2C(C(=O)N1c1ccc(F)cc1)C1C=CC2C12CC2", "note": "(centres unmarked)", "% Inhibition @ 10 uM": -1.06}
{"smiles": "O=S(=O)(c1ccc(-c2csc(-c3ccc(Cl)cc3)n2)cc1)N1CCCC1", "% Inhibition @ 10 uM": -2.73}
{"smiles": "COCCNC(=O)CSc1cn(CC(=O)N2CCOCC2)c2ccccc12", "% Inhibition @ 10 uM": -4.02}
{"smiles": "COc1ccc(N(CC(=O)Nc2cc(C)cc(C)c2)S(C)(=O)=O)cc1", "% Inhibition @ 10 uM": -9.2}
{"smiles": "CCCCCCS(=O)(=O)C1CCS(=O)(=O)C1", "note": "(centres unmarked)", "% Inhibition @ 10 uM": -0.0267}
{"smiles": "CN1CCN(Cc2c(O)ccc3c4c(c(=O)oc23)CCC4)CC1", "% Inhibition @ 10 uM": 3.25}
{"smiles": "COc1ccc(C(=O)NCC2(C)CC(NC(=O)c3ccc(OC)cc3)CC(C)(C)C2)cc1", "note": "(centres unmarked)", "% Inhibition @ 10 uM": 0.389}
{"smiles": "N#CC1=C(N)Oc2[nH]nc(-c3ccccc3)c2C1c1cccnc1", "note": "(centres unmarked)", "% Inhibition @ 10 uM": 7.93}
{"smiles": "O=C(CN(c1ccccc1Cl)S(=O)(=O)c1ccccc1)N1CCc2ccccc2C1", "% Inhibition @ 10 uM": -6.77}
{"smiles": "O=C(O)CCNC(=O)COc1ccc2c3c(c(=O)oc2c1)CCCC3", "% Inhibition @ 10 uM": 3.06}
{"smiles": "CC(=O)Nc1ccc(CN2CCN(c3ccc(Cl)cc3)CC2)cc1", "% Inhibition @ 10 uM": 4.73}
{"smiles": "Cc1ccc(S(=O)(=O)NCCc2nnc3ccc(SCc4c(F)cccc4Cl)nn23)cc1", "% Inhibition @ 10 uM": 0.823}
